Where “and” joins values, the source holds several entries; their conditions need not be identical. Equal entries are not always repeated. The list shows a part of the results. Further columns of the screen follow, without active or inactive calls.
Experiments:
Assay in all cases: Primary Screen for Target Class Profiling of Small Molecule Inhibitors of Methyltransferases
[1] = target: Glycine N-methyltransferase (Homo sapiens) (UniProt Q14749); conditions: purified enzyme, MTase-Glo SAH luminescence; measured here: GNMT inhibition; at 40 µM; stronger effect = lower value
Summary of the method: (§1)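 Each enzyme was reacted with SAM and its substrate, with compounds tested once at 40 uM; SAH formed was read by MTase-Glo luminescence.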

[2] = target: Guanidinoacetate N-methyltransferase (Homo sapiens) (UniProt Q14353); conditions: purified enzyme, MTase-Glo SAH luminescence; measured here: GAMT inhibition; at 40 µM; stronger effect = lower value
Summary of the method: as §1

[3] = target: Histamine N-methyltransferase (Homo sapiens) (UniProt P50135); conditions: purified enzyme, MTase-Glo SAH luminescence; measured here: HNMT inhibition; at 40 µM; stronger effect = lower value
Summary of the method: as §1

[4] = target: Nicotinamide N-methyltransferase (Homo sapiens) (UniProt P40261); conditions: purified enzyme, MTase-Glo SAH luminescence; measured here: NNMT inhibition; at 40 µM; stronger effect = lower value
Summary of the method: as §1

[5] = target: Phenylethanolamine N-methyltransferase (Homo sapiens) (UniProt P11086); conditions: purified enzyme, MTase-Glo SAH luminescence; measured here: PNMT inhibition; at 40 µM; stronger effect = lower value
Summary of the method: as §1
% is set by controls: 0 for no effect and ±100 for the full control effect.

Compound | activity change, negative = inhibition [1] | activity change, negative = inhibition [2] | activity change, negative = inhibition [3] | activity change, negative = inhibition [4] | activity change, negative = inhibition [5]
Cc1ccc(C2(O)CCN(c3nc(C)ccc3C(N)=O)CC2)nc1 | -3.19% | 1.12% | 0.62% | -1.82% | -15.9%
CC1(C(=O)NCc2ccccc2Cl)Cn2cnc(C(=O)NCc3cccc(F)c3)c2C(=O)N1C1CC1 (stereo not given) | -0.175% | 0.863% | 5.49% | 0.046% | 4.71%
CC(=O)O[C@@H]1CC2C(/C=C(\C)C(=O)[C@@]3(O)C[C@@H](C)[C@H](OC(=O)c4ccccc4)C3/C=C/1C)C2(C)C (stereo not given in full) | -1.02% | -1.94% | 4.93% | -14.6% | -5.31%
CCCn1c(=O)c2cc(Cl)ccc2n2c(SCC(=O)NCc3ccccc3)nnc12 | -1.34% | -3.15% | 15% | -2.61% | -0.451%
COc1cc(O)c2c(c1)/C=C/C[C@H](O)[C@H](O)C(=O)/C=C\C[C@H](C)OC2=O | -40.1% | -8.8% | 4.58% | -13.3% | 3.87%
Clc1ccc2c(c1)C(N1CCNCC1)=Nc1ccccc1O2 | 1.13% and 2.41% | 3.6% and 13.3% | 10.1% and 0.182% | -14.5% and -12.7% | 2.75% and 7.79%
O=S(=O)(c1ccccc1)N1CCC(F)(c2nc(-c3ccncc3)no2)CC1 | -6.45% | -11.7% | -6.26% | -2.67% | -16%
COc1ccc(CNC(=O)C2(C)Cn3cnc(C(=O)Nc4ccc(F)cc4Cl)c3C(=O)N2C2CC2)cc1 (stereo not given) | 0.525% | 0.032% | 11.4% | 0.944% | 5.88%
CCCOc1ccc2c(-c3ccccc3)cc(=O)oc2c1 | -3.29% | 0.799% | 6.55% | -10.9% | -10.6%
Cc1ccc(C)c(CNC(=O)c2ncn3c2C(=O)N(C2CC2)C(C)(C(=O)NCc2ccc(F)cc2)C3)c1 (stereo not given) | -3.3% | 1.29% | 4.68% | 3.37% | 1.95%
CC(C)Nc1cc(C(F)(F)F)cc2nc(NC(=O)c3cccnc3)nn12 | 3.91% | 7.46% | 12.3% | -11.2% | 4.75%
CCOc1ccc(NC(=O)c2ncn3c2C(=O)N(C2CC2)C(C)(C(=O)NCc2ccccc2OC)C3)cc1 (stereo not given) | -2.96% | 0% | 10.2% | 5.8% | 2.14%
CC1CCCCC1NC(=O)C1(C)Cn2c(cc3sccc32)C(=O)N1Cc1ccccc1F (stereo not given) | -7.25% | 2.73% | -4.82% | -3.41% | -6.58%
O=C(O)CCc1nc(-c2ccccc2)c(-c2ccccc2)o1 | -13.8% and -24.3% | 0.312% and 0.324% | 3.58% and -4.83% | -26.3% and -19.7% | 0.717% and -2.77%
Cc1ncc([N+](=O)[O-])n1CC(O)CN1CCOCC1 (stereo not given) | 5.82% | 6.79% | 10.7% | -1.78% | 7.06%
C#CCOc1ccccc1CN1CCN(c2ncc(F)cn2)CC1 | -9.5% | -4.8% | -15.6% | -19% | -12.8%
CCCNC(=O)c1cc2n(n1)CC(C)(C(=O)NCc1ccc(C)cc1)N(C)C2=O (stereo not given) | 5.78% | 0.97% | 3.2% | 7.03% | 5.48%
O=C1COc2ccc(OCc3cncs3)nc2CN1Cc1ccc(F)cc1 | -21.8% | -13.1% | -19% | -24.9% | -13.2%
COc1ccc(Cn2c(=O)c3ccccc3n3c(-c4ccc(OC)cc4)nnc23)cc1 | -7.28% | 0% | 2.04% | -2.94% | 0.762%
CC(C)OCCCN1C(=O)c2cc(-c3ccccc3)nn2CC1(C)C(=O)NCc1ccccc1 (stereo not given) | 5.01% | 1.16% | 5.36% | 6.8% | -0.219%
CCOC(=O)c1cc2n(n1)CC(C)(C(=O)NCc1ccccc1)N(Cc1ccc(C)cc1)C2=O (stereo not given) | -3.63% | 0.489% | -1.43% | -4.25% | -3.98%
CCOCCn1c(=O)[nH]c2cc(C(=O)NCCn3cnnc3)ccc21 | -0.346% | -1.26% | 1.66% | -4.77% | -0.527%
Clc1ccc(-c2nnn3c2nc(Cl)c2ccccc23)cc1 | -14.5% | 0.705% | -0.651% | 1.63% | -11.6%
O=C1CN(Cc2cccc(Br)c2)S(=O)(=O)c2ccccc2N1Cc1ccc(F)cc1 | 15.8% | 3.21% | 13.1% | 4.96% | 9.59%
O=C(Cn1ccc2cc(S(=O)(=O)N3CCCCC3)ccc21)NC1CCCC1 | 7.15% | 0.02% | 7.6% | -0.14% | 2.23%
CCCn1c(=O)c2ccc(Cl)cc2n2c(=O)n(CC(=O)Nc3cccc(Cl)c3)nc12 | 3.14% | 0% | 5.4% | 3.05% | -0.713%
CC1(C)[C@@H](O)CC[C@]2(C)[C@H]3CC=C4[C@@H]5C[C@](C)(C(=O)O)CC[C@]5(C)CC[C@@]4(C)[C@]3(C)CC[C@@H]12 | -17.5% | -43.2% | -3.06% | -91.9% | -57.1%
Cc1noc2nc3c(c(C(=O)N[C@H]4CC[C@H]4N)c12)CCC3 | -0.123% | 0.178% | 0.87% | 4.22% | 5.82%
N#Cc1cc(CN2CCCC(C(=O)Nc3cccc(-c4ccc(F)cc4)c3)C2)c[nH]1 (stereo not given) | -7.79% | -10.3% | -59.6% | -13.7% | -10.4%
c1cc(-c2cc(C3CCNCC3)[nH]n2)ccn1 | -4.72% | -7.58% | -0.752% | -16.1% | -14%
